Results from PubChem BioAssay AID1346428 (National Center for Advancing Translational Sciences (NCATS), 2018).
Values joined by “and” are separate entries in the source; they are usually repeats but may differ in a detail not shown here. Equal values may be shown once. About 1,200 (2.5%) of roughly 48,000 compounds were called active. Another 2% or so got no clear call; they are omitted.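 How the source made its calls: active means activation of at least 60% and not above a set upper limit (about 1 call in 100 departs from these limits); inconclusive means activation of 40% to 60%, or above that upper limit; inactive means activation under 40%.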 This is one part of the list.

Molecular target: Probable G-protein coupled receptor 32 (Homo sapiens) (UniProt O75388)
UniProt O75388, sequence (O75388 whole entry, looked up): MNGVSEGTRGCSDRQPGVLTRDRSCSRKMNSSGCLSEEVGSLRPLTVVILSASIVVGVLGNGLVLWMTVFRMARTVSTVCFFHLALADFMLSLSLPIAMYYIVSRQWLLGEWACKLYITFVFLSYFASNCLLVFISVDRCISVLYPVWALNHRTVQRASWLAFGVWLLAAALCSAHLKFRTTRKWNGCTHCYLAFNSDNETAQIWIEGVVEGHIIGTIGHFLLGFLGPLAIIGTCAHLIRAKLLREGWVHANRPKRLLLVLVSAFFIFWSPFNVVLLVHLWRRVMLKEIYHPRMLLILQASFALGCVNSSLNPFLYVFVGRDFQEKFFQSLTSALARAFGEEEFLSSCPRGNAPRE
Test: qHTS for Agonists of Human Resolvin D1 Receptor DRV1; further: 0% is about no effect
Details: CHO-K1 GPR32 beta-arrestin PathHunter luminescence, 90 min; at 76.9 µM; hits give high values; zero percent set by DMSO-only wells
Procedure, shortened: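 Luminescent readout of beta-Gal complementation quantifies ligand-induced beta-arrestin association with GPR32 in CHO-K1 cells; 90 min compound incubation at 37 °C, detection 1 h at room temperature.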

activation, active:
CC(C)(CC(=O)OCC(=O)Nc1ccc(F)c(Cl)c1)CC1=NS(=O)(=O)c2ccccc2N1 115%, CCCS(=O)(=O)c1ncc(Cl)c(C(=O)Nc2scc(-c3ccccc3)c2C(=O)OCC)n1 97.2%, Cc1cc(C)cc(OCC(=O)Nc2ccc(-c3nc4ccccc4s3)cc2)c1 72.2%

activation, inactive:
CCCCOc1cccc(C(=O)Nc2cc3nn(-c4ccc(F)cc4)nc3cc2C)c1 -15.3%, CCCN(CCC)CCCNC(=O)Cn1ncc2c3ccccc3n(Cc3ccc(F)cc3)c2c1=O -6.91%, CCOC(=O)c1ccc(N2C(=O)c3n[nH]c(-c4cccs4)c3C2c2ccc(C)cc2)cc1 (configuration not stated) -5.68%, Cc1cc2ccccc2n1-c1ccc(C(=O)N2CCCCC2)s1 1.38%, COc1cccc(CNC(=O)CCNS(=O)(=O)c2cccc3nsnc23)c1 -1.7%, COCCCNC(=O)CCCn1c(=O)c2cccn2c2cccnc21 -13.7%, Cc1nc(C)c(-c2ccc(SCC(=O)Nc3ccccc3F)nn2)s1 1.11%, CCn1cc(S(=O)(=O)c2ccccc2)c(=O)c2cc(C)ccc21 8.97%, COc1cc(OC)cc(C(=O)Nc2ccc(S(=O)(=O)Nc3cc(C)nc(C)n3)cc2)c1 -40.2%, CCOC(=O)c1[nH]c2ccccc2c1NC(=O)c1ccc(OC(C)C)cc1 23.2%, NC(=O)N/N=C/c1ccc([N+](=O)[O-])o1 10.7% and -5.5%, COc1ccc(CCN2CC(C(=O)NCCc3ccc(C)cc3)CC2=O)cc1OC (configuration not stated) -19.6%, CCCCn1c(COc2cccc(OC)c2)nc2ccccc21 -29.3%, COc1cc(NC(=O)c2cc3c(=O)oc4ccc(C)cc4c3s2)cc(OC)c1OC -5%, O=C(CSc1nccn1-c1ccc(Cl)cc1)Nc1nc2ccccc2s1 3.3%, CCOC(=O)c1c(C)[nH]c(C)c1S(=O)(=O)N1CCC(C(=O)NCc2ccccc2)CC1 -6.72%, Cc1ccc(C)c(OCCSc2nc3ccccc3n2CC(=O)N2CCOCC2)c1 -26.2%, CCc1cccc(CC)c1NC(=O)c1cc(S(=O)(=O)N2CCc3ccccc32)cn1C 20%, COC(=O)c1c(NC(=O)CCCOc2ccc(C)cc2)sc2c1C(C(=O)OC)CC2 (configuration not stated) -14.4%, Cc1ccc(CN2CCCn3nc(C(=O)NCCN(C)C)cc3C2=O)cc1 -1.39%, COc1ccc(-c2ccc(NS(=O)(=O)c3ccc(F)c(C(F)(F)F)c3)cc2)nn1 7.37%, COc1cccc(OCc2nc3ccccc3n2CCOc2ccccc2)c1 -15.2%, Cc1nn2c(=O)cc(COC(=O)c3ccccc3NC(=O)c3ccccc3C)nc2s1 -4.69%, COc1ccc2c(c1)c1c(c(=O)n(Cc3ccccc3)c(=O)n1Cc1cc(C)ccc1C)n2C -8.43%, Cc1nc2ccn(Cc3ccco3)c(=O)c2cc1C(=O)N1CCN(c2ccccc2F)CC1 -16.3%, COc1ccc(NC(=O)Cc2coc3cc(C)cc(C)c23)c(OC)c1 -11.6%, CC(C)C[C@H](NC(=O)[C@H](CCc1ccccc1)NC(=O)CN1CCOCC1)C(=O)N[C@@H](Cc1ccccc1)C(=O)N[C@@H](CC(C)C)C(=O)[C@@]1(C)CO1 -6.68%, Cc1ccc(S(=O)(=O)N2CCCC(c3nc4c(nnn4Cc4ccc(OC(F)(F)F)cc4)c(=O)[nH]3)C2)cc1 (configuration not stated) -0.576%, Cn1nc(-c2ccc(OCC(=O)Nc3ccccc3)cc2)c2ccccc2c1=O 13.4%, O=C(Cn1c(=O)nc(-c2ccccc2)c2cc(Cl)ccc21)NCc1ccccc1 -2.02%, CCOC(=O)c1ccc2c(c1)N(Cc1cccc([N+](=O)[O-])c1)C(=O)c1ccccc1S2 -4.43%, COCCNC(=O)c1cc2n(n1)CCCN(Cc1ccc(C)cc1)C2=O -1.81%, Cc1c(Cl)cccc1Nc1sc(C(=O)c2ccccc2)c(N)c1S(=O)(=O)c1ccccc1 -0.764%, CC(=O)Cn1nnc2sc(-c3ccccc3)cc2c1=O -7.95%, CSc1cccc(N2C(=O)N(Cc3ccc([N+](=O)[O-])cc3)c3ccccc3S2(=O)=O)c1 -5.02%, O=C1CC(c2nc3ccccc3n2Cc2c(F)cccc2Cl)CN1c1cccc(C(F)(F)F)c1 (configuration not stated) -3.05%, CN(Cc1ccccc1)C(=O)c1cc2c(=O)n(C)c3ccccc3c2s1 4.87%, CCOC(=O)N1CCc2c(sc3c2c(=O)n(Cc2ccccc2)c(=O)n3Cc2c(F)cccc2Cl)C1 -14.7%, COc1ccc(NC(=O)CC2C(=O)N(c3ccc(C)cc3)C(=O)N2CCc2ccccc2)cc1 (configuration not stated) -2.6%, COc1ccc(CC(=O)Nc2c(C(=O)Nc3ccccc3F)oc3ccccc23)cc1 -8.23%, CC(C)c1ccc(CNc2nc(-c3ccco3)nn2S(=O)(=O)c2ccc3ccccc3c2)cc1 -18.3%, Cc1cc(C)cc(N2CCn3c2nc2c3c(=O)n(Cc3ccc(Cl)cc3)c(=O)n2C)c1 0.848%, CC(=O)N[C@@H](CCC(=O)O)C(=O)O 1.09%, O=S(=O)(c1ccccc1)c1nc(-c2ccc(Cl)cc2Cl)oc1N1CCCCCC1 0.817%, CN(C)CCC[C@@]1(c2ccc(F)cc2)OCc2cc(C#N)ccc21 -2.96%, COc1ccc(CNC(=O)Cn2nnc(-c3ccc(S(C)(=O)=O)cc3)n2)cc1 -1.99%, COc1cccc2c1cc1c(=O)n(CC(=O)N3CCN(c4cc(Cl)ccc4C)CC3)nc(C)n12 -11.3%, COc1cccc(-c2cc(C(=O)Nc3cc(OC)c(OC)c(OC)c3)on2)c1 -12%, O=C(CCCn1c(=O)c2cccn2c2cccnc21)NCc1ccc(F)cc1 -29.6%, CCC1CCCCN1CC(=O)N1CCCc2c1c(=O)oc1ccc(OCc3ccccc3)cc21 (configuration not stated) -6.53%, COc1ccc(-c2nc(Cn3c(SCc4ccc(C)cc4)nc4cccnc43)c(C)o2)cc1OC -16.6%, CCOc1ccc(-n2c(C)nc3cc(C(=O)NCCC4=CCCCC4)ccc32)cc1 1.39%, COc1ccc(CNC(=O)CCC(=O)N2CCSc3ccccc32)cc1 -8.1%, COc1ccc(C(=O)CC2(O)C(=O)N(Cc3ccccc3Cl)c3ccccc32)cc1 (configuration not stated) -3.81%, CCN1CCN(c2ccc(NS(=O)(=O)c3c(C)nc4sccn4c3=O)cc2Cl)CC1 4.47%, COc1ccc(-c2nnc(SCC(=O)Nc3ccc(Cl)cc3)s2)cc1 -3.29%, CCOC(=O)c1ccc(NC(=O)C2=C(C)Nc3nc(SCc4ccc(Cl)cc4)nn3C2c2ccc(OC)cc2)cc1 (configuration not stated) 3.16%, Nc1ncc(S(=O)(=O)NCc2ccc(Cl)cc2)cn1 -0.594%, COc1ccc(Cl)cc1NC(=O)Cn1cc(C(=O)c2ccncc2)c(=O)c2cc(C)ccc21 -21.5%, CC(C)NC(=O)c1ccc(-n2c(-c3ccccc3)cc3c2CCCCC3)cc1 -32.2%, CCC(Sc1nc2cc(OC)c(OC)cc2c(=O)n1CCc1ccc(Cl)cc1)C(=O)NCCOC (configuration not stated) -16.5%, Cc1ccc(NC(=O)N(Cc2cn(C)c3ccccc23)C2CCCCC2)cc1C -7.4%, O=C(CSc1nc2ccccc2n1Cc1ccccc1F)NCc1ccccc1 -9.63%, Cc1ccccc1C(=O)Nc1cccc(C(=O)OCc2cc(=O)n3c4c(sc3n2)CCCC4)c1 -13.1%, CCOc1ccc(-c2cc(OC(=O)c3ccccc3)c3c(C)oc(C)c3c(=O)c2)cc1 -13%, Cn1nnc2c(N3CCN(c4ccccc4F)CC3)ncnc21 -0.429%, COc1cc2nc(SCc3cccc(Cl)c3)n3nc(CCn4nc(C)cc4C)nc3c2cc1OC 3.15%, COc1ccc(N(CC(=O)NCCc2ccccc2)S(=O)(=O)c2ccccc2)c(OC)c1 -15.6%, Nc1ncnc2c1ncn2[C@@H]1O[C@H](COP(=O)(O)OP(=O)(O)OP(=O)(O)OP(=O)(O)OC[C@@H]2O[C@H](n3cnc4c(N)ncnc43)[C@@H](O)[C@H]2O)[C@@H](O)[C@H]1O -5.14%, Cc1ccc2oc3c(c(=O)c2c1)C(c1ccccc1F)N(CCCN1CCOCC1)C3=O (configuration not stated) -3.78%, Cc1ccc(-n2c(SCC(=O)NCc3ccc(F)cc3)nc3c([nH]c4ccccc43)c2=O)cc1 -18.3%, CCCCNC(=O)CSc1nc2cc3c(cc2c(=O)n1CCCCCC(=O)NCc1ccc2c(c1)OCO2)OCO3 -8.1%, COc1cc2c(cc1OC)C(COc1ccc(F)cc1)N(C(=O)Cc1ccc(F)cc1)CC2 (configuration not stated) -10.4%, Cc1cc(C)cc(NC(=O)CCc2c(C)nn(-c3ccc(N4CCCC4)nn3)c2C)c1 1.61%, CCOc1ccc(OCC)c(S(=O)(=O)N2CCN(c3cccc(C)c3C)CC2)c1 -1.01%, Cc1ccc(Nc2c(-c3ccncc3)nc3ccc(C)cn23)cc1 -16.1%, CCOC(=O)C1CCN(c2ncnc3c2nnn3C)CC1 2.96%, Cc1ccc(CN(C(=O)COc2cccc([N+](=O)[O-])c2)c2ccccn2)cc1 -8.41%, Cc1ccccc1-c1nn2c(=O)cc(CN3CCN(C(=O)c4ccc(C(C)(C)C)cc4)CC3)nc2s1 24.7%
